Some of the results follow. Most values come without repeats; read them as rough.
What was measured:
Assay in all cases: cell count relative to DMSO control; melanoma cells; higher = more viable cells
Details in all cases: library dose: low library concentration; 72 h
MZ2-MEL = test system: MZ2-MEL
MeWo = test system: MeWo
RPMI7951 = test system: RPMI7951
RVH-421 = test system: RVH-421
SkMel28 = test system: SkMel28
SkMel2 = test system: SkMel2
SkMel30 = test system: SkMel30
SkMel5 = test system: SkMel5
UACC257 = test system: UACC257
UACC62 = test system: UACC62
WM115 = test system: WM115
WM1716 = test system: WM1716
WM1745 = test system: WM1745
WM3526 = test system: WM3526
WM3619 = test system: WM3619
WM451Lu = test system: WM451Lu
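Note: cell number obtained by counting DAPI-stained nuclei in high-throughput microscope images with image analysis software, screen run in 1,536-well plates.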

| SMILES | cell count (MZ2-MEL) [%] | cell count (MeWo) [%] | cell count (RPMI7951) [%] | cell count (RVH-421) [%] | cell count (SkMel28) [%] | cell count (SkMel2) [%] | cell count (SkMel30) [%] | cell count (SkMel5) [%] | cell count (UACC257) [%] | cell count (UACC62) [%] | cell count (WM115) [%] | cell count (WM1716) [%] | cell count (WM1745) [%] | cell count (WM3526) [%] | cell count (WM3619) [%] | cell count (WM451Lu) [%] |
| --- | --- | --- | --- | --- | --- | --- | --- | --- | --- | --- | --- | --- | --- | --- | --- | --- |
| CC(=O)c1c(C)c2cnc(Nc3ccc(N4CCNCC4)cn3)nc2n(C2CCCC2)c1=O [palbociclib] + OCCn1cc(-c2cnc3nnn(Cc4ccc5ncccc5c4)c3n2)cn1 [PF04217903] (first compound 0.04 µM, partner dose 1 µM) | 87.3 | 80.7 | 74.4 | 85.6 | 88.4 | 82.6 | 80.3 | 79.7 | 82.2 | 88 | 75.8 | 67.9 | 73 | 54.8 | 80.2 | 81 |
| Nc1nc(F)nc2c1ncn2[C@@H]1O[C@H](CO)[C@@H](O)[C@@H]1O [fludarabine] + NC(=O)Nc1cc(-c2cccc(F)c2)sc1C(=O)N[C@H]1CCCNC1 [AZD7762] (first compound 0.2 µM, partner dose 0.02 µM) | 100 | 32.5 | 70.1 | 90.1 | 63.4 | 8.17 | 15.7 | 58.5 | 109 | 91.9 | 78.4 | 83.8 | 86.3 | 34.4 | 46.7 | 52.4 |
| Nc1ncn([C@H]2C[C@H](O)[C@@H](CO)O2)c(=O)n1 [decitabine] + COC(=O)c1sccc1S(=O)(=O)Nc1ccc(Nc2ccccc2)cc1OC [GSK0660] (first compound 0.1 µM, partner dose 1 µM) | 93.6 | 88.7 | 86.1 | 78.2 | 65.5 | 103 | 92.7 | 105 | 106 | 77.6 | 83.6 | 69.5 | 95.6 | 90.7 | 82.6 | 93 |
| Nc1nc(F)nc2c1ncn2[C@@H]1O[C@H](CO)[C@@H](O)[C@@H]1O [fludarabine] + COc1ccc(COc2ccc(Cc3cnc(N)nc3N)cc2OC)cc1 [GW2580] (first compound 0.2 µM, partner dose 1 µM) | 86.8 | 34.7 | 103 | 157 | 77.2 | 5.76 | 23 | 56.5 | 89.3 | 92.6 | 97.9 | 103 | 101 | 36.9 | 94.5 | 56.4 |
| CC(=O)O[C@@]12CO[C@@H]1C[C@H](O)[C@@]1(C)C(=O)[C@H](O)C3=C(C)[C@@H](OC(=O)[C@H](O)[C@@H](NC(=O)OC(C)(C)C)c4ccccc4)C[C@@](O)([C@@H](OC(=O)c4ccccc4)[C@H]21)C3(C)C [Docetaxel] + c1cc(-c2cnn3cc(-c4ccc(OCCN5CCCCC5)cc4)cnc23)ccn1 [Dorsomorphin] (first compound 0.0001 µM, partner dose 0.4 µM) | 41.5 | 39.8 | 27.2 | 62.5 | 35.7 | 32.1 | 26.2 | 69.2 | 37.5 | 43 | 44.7 | 26.9 | 38.1 | 38.3 | 58.6 | 48.6 |
| CC(=O)O[C@@]12CO[C@@H]1C[C@H](O)[C@@]1(C)C(=O)[C@H](O)C3=C(C)[C@@H](OC(=O)[C@H](O)[C@@H](NC(=O)OC(C)(C)C)c4ccccc4)C[C@@](O)([C@@H](OC(=O)c4ccccc4)[C@H]21)C3(C)C [Docetaxel] + O=C1NC(=O)/C(=C/c2ccc(-c3ccc(F)cc3O)o2)S1 [AS252424] (first compound 0.0001 µM, partner dose 1 µM) | 51.1 | 35.5 | 49.2 | 56.8 | 40 | 46.6 | 30.5 | 62 | 46.8 | 39.7 | 70.6 | 38.6 | 61.4 | 24 | 68 | 44.7 |
| Nc1ncn([C@H]2C[C@H](O)[C@@H](CO)O2)c(=O)n1 [decitabine] + CN(NC(=O)CC(=O)NN(C)C(=S)c1ccccc1)C(=S)c1ccccc1 [STA4783] (first compound 0.1 µM, partner dose 0.006 µM) | 76.1 | 103 | 71.9 | 93.1 | 17.1 | 102 | 104 | 83.6 | 106 | 77.6 | 83.9 | 86.5 | 86.2 | 99.4 | 109 | 85.9 |
| Nc1ccn([C@@H]2O[C@H](CO)[C@@H](O)C2(F)F)c(=O)n1 [gemcitabine] + CC(C)(C)c1cnc(CSc2cnc(NC(=O)C3CCNCC3)s2)o1 [SNS-032] (first compound 0.0004 µM, partner dose 0.01 µM) | 92.2 | 112 | 77.1 | 83.9 | 102 | 97.2 | 108 | 124 | 114 | 85.8 | 97.1 | 83.7 | 72.2 | 106 | 87.2 | 92.2 |
| Nc1nc(F)nc2c1ncn2[C@@H]1O[C@H](CO)[C@@H](O)[C@@H]1O [fludarabine] + COc1ccc(-c2ccc3c(N4CCOCC4)nc(N4C[C@@H](C)O[C@@H](C)C4)nc3n2)cc1CO [KU0063794] (first compound 0.2 µM, partner dose 0.02 µM) | 113 | 36.1 | 86 | 101 | 65.3 | 5.37 | 17.9 | 55.3 | 85.2 | 87.2 | 81.5 | 100 | 92.1 | 22.1 | 103 | 42.5 |
| Nc1ncn([C@H]2C[C@H](O)[C@@H](CO)O2)c(=O)n1 [decitabine] + N#Cc1c(O)c2c(-c3ccc(-c4ccccc4O)cc3)csc2[nH]c1=O [A769662] (first compound 0.1 µM, partner dose 2 µM) | 92.9 | 108 | 80.4 | 109 | 94.8 | 98.3 | 113 | 102 | 130 | 79.8 | 90.2 | 87.3 | 91.7 | 109 | 90.4 | 149 |
| CC(=O)O[C@@]12CO[C@@H]1C[C@H](O)[C@@]1(C)C(=O)[C@H](O)C3=C(C)[C@@H](OC(=O)[C@H](O)[C@@H](NC(=O)OC(C)(C)C)c4ccccc4)C[C@@](O)([C@@H](OC(=O)c4ccccc4)[C@H]21)C3(C)C [Docetaxel] + O=C(O)c1ccc(-c2c[nH]c3ncc(-c4ccccc4)cc23)cc1C1CCCC1 [GSK650394] (first compound 0.0001 µM, partner dose 0.16 µM) | 46.8 | 42 | 35 | 62.8 | 29.5 | 42.6 | 35.1 | 86.2 | 37 | 42.5 | 63.1 | 33.7 | 54 | 55.2 | 63.1 | 58 |
| Nc1nc(F)nc2c1ncn2[C@@H]1O[C@H](CO)[C@@H](O)[C@@H]1O [fludarabine] + CC(C)CCN1c2nc(Nc3cc(F)c(O)c(F)c3)ncc2N(C)C(=O)C1C [BID1870] (first compound 0.2 µM, partner dose 0.2 µM) | 109 | 47 | 92.6 | 101 | 76.4 | 9.77 | 19.8 | 60.1 | 89.6 | 74.4 | 90.9 | 102 | 82 | 28.6 | 99.1 | 42 |
| Nc1ncn([C@H]2C[C@H](O)[C@@H](CO)O2)c(=O)n1 [decitabine] + Cc1ccc(NC(=O)c2cccc(N(C)C)c2)cc1NC(=O)c1ccc(O)cc1 [ZM336372] (first compound 0.1 µM, partner dose 2 µM) | 62 | 90.5 | 59.5 | 74.2 | 81.3 | 110 | 95.2 | 87.7 | 92.2 | 70.1 | 87.1 | 86.6 | 97.9 | 95.6 | 86.9 | 96.4 |
| CC(=O)c1c(C)c2cnc(Nc3ccc(N4CCNCC4)cn3)nc2n(C2CCCC2)c1=O [palbociclib] + Cn1cc(/C=C2\C(=O)Nc3cccnc32)c2ccccc21 [GW441756] (first compound 0.04 µM, partner dose 0.4 µM) | 77.1 | 71.6 | 76.5 | 97.4 | 83.3 | 77.8 | 64.3 | 69.8 | 50.2 | 76.8 | 70.3 | 58 | 71.7 | 73.3 | 85.5 | 73.6 |
| CC(=O)c1c(C)c2cnc(Nc3ccc(N4CCNCC4)cn3)nc2n(C2CCCC2)c1=O [palbociclib] + C[C@@H]1CCN(C(=O)CC#N)C[C@@H]1N(C)c1ncnc2[nH]ccc12 [CP690550] (first compound 0.04 µM, partner dose 1 µM) | 81.3 | 71.4 | 79.4 | 78.5 | 80.5 | 82.2 | 69.1 | 63.4 | 69.1 | 78 | 89.2 | 55.7 | 76.1 | 58.1 | 62.9 | 75.7 |
| CC(=O)c1c(C)c2cnc(Nc3ccc(N4CCNCC4)cn3)nc2n(C2CCCC2)c1=O [palbociclib] + Clc1ccc(Nc2nnc(Cc3ccncc3)c3ccccc23)cc1 [vatalanib] (first compound 0.04 µM, partner dose 2 µM) | 81.1 | 61.2 | 79.2 | 83.1 | 79.4 | 83.8 | 78.4 | – | – | 83.5 | 73.3 | 75.3 | 69.7 | 66.8 | 85.4 | 89.5 |
| Nc1ncn([C@H]2C[C@H](O)[C@@H](CO)O2)c(=O)n1 [decitabine] + O=C(O)c1ccc(-c2c[nH]c3ncc(-c4ccccc4)cc23)cc1C1CCCC1 [GSK650394] (first compound 0.1 µM, partner dose 0.16 µM) | 79.9 | 86.9 | 79.9 | 95.3 | 86.1 | 93.3 | 128 | 93.7 | 73.3 | 76.7 | 75.4 | 73.1 | 92 | 93.4 | 115 | 61.9 |
| Nc1ccn([C@@H]2O[C@H](CO)[C@@H](O)C2(F)F)c(=O)n1 [gemcitabine] + COc1cc2ncnc(Nc3ccc(Oc4ccccc4)cc3)c2cc1OC [SrcI1] (first compound 0.0004 µM, partner dose 2 µM) | 94.5 | 96.7 | 128 | 95.9 | 76.7 | 96.2 | 106 | 107 | 111 | 102 | 96.3 | 117 | 71.7 | 71.4 | 79.3 | 92.2 |
